Recombinant human monoclonal antibodies (heavy:light variable regions). ELISA EC50 on the named antigen, from 10 µg/ml down; IC50 / IC90 against spike pseudovirus on 293T-ACE2 cells, 48 h; lower = stronger. Calls: IC50 above 1,000 ng/ml = non-neutralizing; EC50 above 1,000 ng/ml = non-binder. The source prints 1000 for neutralization that was not reached; it is given as >1000 ng/ml. Only binders of the Wuhan-Hu-1 domain have neutralization values.
B1: B1110 (protein)
chain 1: EVQLVESGGALQQPGRSLTLSCAASGFTFEDYAMHWVRQAPGKGLEWVSGITWTGGMIDYADSVKGRLIISRDNAKKSLYLHMRGLRPEDTALYYCARGSRSGSYHLRDHFYGMDVWGQGTTVT
chain 2: EIVLTQSPGTLSLSPGERATLSCRASQSVNSNYLAWYQQKPGQAPRLLIYGASSRATGIPDRFSGSESGTDFTLTISRLEPEDFAVYYCQQYGFSAWTFGQGTKVEIK
B2: B1112 (protein)
chain 1: QVQLQESGPGLVKPSETLSLTCSVSGGSMNNYYWSWIRQPPGKGLEWIGYIEYSGSTNYNPSLKSRVTISVDTAKNQFSLKLRSVTAADTAVYYCARVATFSITFGGVITDYYNYYMDVWGKGTAVTVSS
chain 2: EIVLTQSPGTLSLSPGESATLSCRARHSISSNYLAWYQQKPGQAPRLLIYGVSSRATGIPDRFSGSGSGTDFTLTISRLEPEDFAVYYCQQYAGTPLTFGGGTKVEIK
B3: B1113 (protein)
chain 1: QVQLVQSGAEVKKPGSSVKVSCKASGDTFSTSAFNWVRQAPGQGLEWMGEIIPTFDTSTYAQKFQGRVTITADKSTSTVYMELSSLRSEDTAVYFCARVPGFYSGHFDSWGQGTLVTVSS
chain 2: DIQMTQSPSSLSASVGDRVTITCQASQDMSNYLNWYQQKPGKAPKLLIYDVFNLEAGVPSRFSGSRSGTDFTLTISSLQPEDIATYYCQHYDNLSSYSFGQGTKLEIK
B4: B1116 (protein)
chain 1: QVQLVESGGGVVQPGRSLRLSCAASGFTFNRHAIHWVRQAPGKGLEWLGVISNDGAIKSYPDSVKGRFTISRDNSRNTLYLQMNSLRTEDTAVYYCARDQEALTPIFDYWGQGTLVTVSS
chain 2: DIQMTQSPSSLSASVGDRVTITCRASQSISSYLNWYHQKPGKAPKLLIYNAASLQSGVPSRFSGSGSGTDFTLTISSLQPEDFATYYCQQSYNTPPITFGQGTRLE
B5: B2004 (protein)
chain 1: QVQLQESGPGLVKPSQTLSLTCTVSGGSVRSGGYYWSWIRQPPGKGLEWIGYIYYSGNTFYLPSLQSRVTISVDMSKNQFSLRLSSVTAADTAVYYCARDQHESHYGSGPSGRIDSWGQGTLVTVSS
chain 2: IRMTQSPSSLSASVGDRVTITCQASQDINNYLNWYQQKPGKAPKVLIYDASNLETGVPSRFSGSGSGTDFTFTISNLQPEDIATYYCQQYDNLPLTFGGGTKVEIK
B6: B1118 (protein)
chain 1: EVQLVQSGAEVKKPGESLKISCKASGYSFTTYWIGWVRQMPGKGLEWMGIIYPGDSDARYSPSFQGQVTFSVDKSITTASLQWSSLKASDTAMYYCARSRSGDYFDYWGQGTLVTVS
chain 2: AIQLTQSPSSLSASVGDRVTITCRASQGISNGLAWYQQKPGNAPKLLIYDASNLESGVPSRFSGSGSVTDFTLTISSLQPEDFATYYCQHFKSYPFTFGPGTKVDIK
B7: B1119 (protein)
chain 1: EVQLVESGGGLVQPGGSLRLSCAASGFTFSNDDMHWVRQASGKGLKWVSAIGTAGDRYYADSVKGRFTISRENAKNSFYLQMNDLRAEDTAVYYCARGVHERIDYYYYYYMDVWGKGATVIVS
chain 2: DIQMTQSPSSLSASVGDRVTITCRASQSISRYLNWYQQKPGKAPKLLIHAASSLQSGVPSRFSGSGSGTDFTLTISSLQPEDFATYYCQQSYSSPPWTFGPGTKVEIK
B8: B1120 (protein)
chain 1: EVQLVESGGGLVQPGGSLRLSCAASGFTFSSDDMHWVRQVTGKGLEWVSGIGTNSDKYYAGSVKGRFTIFREDAKNSLYLQMNSLRAEDSALYYCTRGVQVVRGVKFYYSMDVWGKGTTVTVS
chain 2: DIQMTQSPSSLSASVGDRITITCRASQTISSYLNWYQQKPGKAPKLLIYAASSLQSGVPSRFSGSGSGTDFTLTISSLQPEDFATYYCQQSYSNPPESSFGQGTKLEIK
B9: B1121 (protein)
chain 1: EVQLVESGGGLIQPGGSLRLSCAASGIIVSSNYMTWVRQAPGKGLECVSLIYPGGSTFYPDSVKGRFTISRDNSKNILYLQMDSLRAEDTAVYYCARSYVDYYMDVWGKGTTVTVSS
chain 2: EIVMTQSPATLSVSPGERATLSCRASQSVSSNLAWYQQKPGQAPRLLIYGASTRATGIPARFSGSGSGTEFTLTISSLQSEDFAVYYCQHYNNWWTFGQGTKVEIK
B10: B2052 (protein)
chain 1: EVQLVQSGAEVKKPGESLRISCKGSGYSFPSYWITWVRQMPGKGLEWMGRIDPSDSYTDYSPSFQGHVTISVDKSINTAYLQWSSLKPSDTAKYYCARDQQHLLTFTGMDVWGQGTTVTVSS
chain 2: DIQMTQSPSTLSASVGDRVTITCRASQSISSWLAWYQQKPGKAPKLLMYKASTLESGVPSRFSGSGSGTEFTLTISSLQPDDFATYYCQHYNAISRTFGQGTKVEIK
B11: B2053 (protein)
chain 1: VQLVESGGGVVQPGMSLRLSCTASGFTFSNYAVHWVRQAPGKGLEWVAIVSNDGKIKFYADSVKDRFTISRDNSKNTLFLQMNGLRSDDTAVYYCARDREELSYWSLDYWGQGTLVTVSS
chain 2: DIQMTQSPSSLSASVGDRVTVTCRASQSIRTYLNWYQQKPGKAPKLLIYAASNLQSGVPSRFSGSGSGTDFTLTISSLQREDFATYFCQQSYSTPPLTFGGGTRVEIK
B12: B2054 (protein)
chain 1: VQLVESGGGVVQPGRSLRLSCAASGFTFRTYAMHWVRQAPGKGPEWLAVISDDGSIKYYADSVQGRFTISRDNSESTLYLQLNSLRAEDTAVYYCATEGMTGLVIYFDFWGQGTLVTVSS
chain 2: DIQLTQSPSSLSASVGDRVTLTCRASQSIGNYLNWYQQKPGKAPKLLIYAASSLQSGVPSRFSGSGSGTDFTLTISSLQPEDFATYYCQQSYSTSEYTFGQGTKLEIK
B13: B2055 (protein)
chain 1: QVQLQESGPGLVKPSQTLSLTCTVSGVSITSGGNYWTWIRQFPGKGLEWIGYIDYSGSAFFNPSLKSRFAMSLDTSNNQFSLTVNSVTAADTAVYYCAREIRLLELQGNVFDTWGQGTMVTVSS
chain 2: DIQMTQSPSSLSASVGDRVTITCQASQDSTNCLNWYQQKPGKAPKLLIYDASNLGTGVPSRFSGRGSGTDFTLTISSLQPEDIATYYCQQYENLPYTFGQGTKLEIK
B14: B2056 (protein)
chain 1: EVQLVQSGAEVKKPGESLKISCQGSGHIFTRYWIAWVRQMPGKGLEYMGIIYPPDSDTTYSPSFQGQVTISADKSISTAFLQWSSLKASDTAIYYCATLPRGPKSGDPFDIWGQGTMVTVSS
chain 2: DIQLTQSPSSLSASVGDRVTITCRASESISSYLNWYQQKPGKAPELLIYAASSLQSGVPSRFSGSGSGTDFTLTISSLQPEDFATYYCQQSYSTPPTFGQGTKLEIK

These binders were tested against SARS-CoV-2 Wuhan-Hu-1 spike pseudovirus (assay: pseudovirus neutralization IC50; higher = weaker neutralization).
Method: (§1)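 Single-round luciferase reporter pseudovirus mixed with antibody dilutions and put on 293T-ACE2 cells for 48 h; signal relative to no-antibody wells, four-parameter fit.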

Binder | pseudovirus neutralization IC50 [µg/mL]
B1 | 0.832
B2 | 0.146
B3 | > 1
B4 | 0.851
B5 | 0.0455
B6 | > 1
B7 | > 1
B8 | > 1
B9 | 0.00856
B10 | 0.0257
B11 | 0.213
B12 | > 1
B13 | 0.00351
B14 | > 1

What follows are binders tested against SARS-CoV-2 Wuhan-Hu-1 spike pseudovirus (assay: pseudovirus neutralization IC90; higher = weaker neutralization).
Method: as §1

Binder | pseudovirus neutralization IC90 [µg/mL]
B1 | > 1
B2 | > 1
B3 | > 1
B4 | > 1
B5 | 0.464
B6 | > 1
B7 | > 1
B8 | > 1
B9 | 0.0619
B10 | 0.341
B11 | > 1
B12 | > 1
B13 | 0.0204
B14 | > 1

These binders were tested against SARS-CoV-2 Delta (B.1.617.2) spike RBD (assay: ELISA binding EC50; higher = weaker binding; ELISA of recombinant human antibody on coated antigen, from 10 µg/ml in fourfold dilutions; four-parameter fit.).

Binder | ELISA binding EC50 [µg/mL]
B1 | > 1
B2 | 0.0294
B3 | 0.0158
B4 | 0.0145
B5 | 0.506
B6 | 0.0219
B7 | 0.0637
B8 | 0.00958
B9 | 0.0312
B10 | 0.00845
B11 | 0.0132
B12 | 0.00767
B13 | 0.0166
B14 | 0.031

Each binder was assayed against SARS-CoV-2 Omicron BA.1 spike protein in the same assay as above.

Binder | ELISA binding EC50 [µg/mL]
B1 | > 1
B2 | 0.0272
B3 | 0.011
B4 | 0.041
B5 | 0.00895
B6 | 0.0081
B7 | 0.114
B8 | 0.0374
B9 | > 1
B10 | 0.0225
B11 | 0.00793
B12 | 0.0423
B13 | 0.023
B14 | 0.00746

The binders below were run against SARS-CoV-2 Wuhan-Hu-1 spike receptor-binding domain in the same assay as above.

Binder | ELISA binding EC50 [µg/mL]
B1 | 0.00388
B2 | 0.00241
B3 | 0.00379
B4 | 0.00325
B5 | 0.00407
B6 | 0.00368
B7 | 0.00301
B8 | 0.0028
B9 | 0.00253
B10 | 0.00235
B11 | 0.00105
B12 | 0.00339
B13 | 0.0025
B14 | 0.00213

From the supplement of paper PMC9513381
